The subject of this experiment is Plasmodium falciparum NF54 stage V gametocytes. As to the kind of experiment: viability index relative to DMSO control (fraction); higher = less gametocyte killing. The conditions noted are these: 2.5 µM, incubation time: 72 h. The method in brief:
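Stage V gametocytes of P. falciparum NF54 were held in serum-free screening medium at 0.75% gametocytemia and 1.25% hematocrit, 10 µl per well of a 1,536-well plate, and exposed to compound at 2.5 µM for 72 hr at 37°C under low oxygen. A 3 µl mix of 2.5 µM MitoTracker Red CMXRos with 0.13% saponin was then added for one to two hours, after which one field per well was imaged and red particles of 20–70 µm2 were counted. The viability index equals this count divided by the plate mean from wells given solvent alone.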

Setting [1] is: library set: Broad Institute DOS.

Each structure is given as a SMILES string. ± gives the uncertainty stated by the source. The full ranking holds about 9,900 compounds; the median of “viability index relative to DMSO control” is about 1, and the lowest 2% start at about 0.85. This is one part of the list.

For the compound `COc1cccc(NC(=O)Nc2ccc3c(c2)C(=O)N(C)C[C@H](OC)[C@@H](C)CN(CC2CC2)[C@@H](C)CO3)c1`, the viability index under setting [1] came to 0.904 ± 0.031.

In the case of `CC(C)C#Cc1ccc([C@@H]2[C@@H](CO)N3C(=O)CN(S(=O)(=O)c4ccccc4)C[C@H]23)cc1`, under setting [1], the viability index was 1.01 ± 0.072.

Under setting [1], `CCS(=O)(=O)N[C@@H]1CC[C@@H](CC(=O)NCc2ccc(Cl)cc2)O[C@@H]1CO` showed a viability index of 1.06 ± 0.14.

As to `C/C=C/c1ccc([C@@H]2[C@@H]3CN(S(=O)(=O)c4cn(C)cn4)C[C@H]2N3)cc1`, the viability index under setting [1] was determined as 1.09 ± 0.02.

Under setting [1], `O=C(CC1CC1)N1[C@H](CO)[C@H]2c3ccccc3N(S(=O)(=O)c3ccccc3F)C[C@H]21` yielded a viability index of 1.03 ± 0.048.

For `N#C[C@@H]1[C@H](c2ccccc2-c2cccc(F)c2)[C@@H](CO)N1C(=O)CN1CCOCC1`, under setting [1], the viability index turned out to be 1.15 ± 0.16.

Under setting [1], `C[C@@H]1CN([C@@H](C)CO)C(=O)c2cc(NS(=O)(=O)c3ccc(F)cc3)ccc2O[C@@H]1CN(C)C(=O)Nc1ccccc1` registered a viability index of 1.03 ± 0.04.

Take `N#C[C@@H]1[C@@H](c2ccccc2-c2cccc(F)c2)[C@@H](CO)N1C(=O)C1CC1`: the viability index under setting [1] was found to be 1.15 ± 0.027.

Compound `C[C@@H]1CCCCO[C@@H](CN(C)CC2CCCCC2)[C@@H](C)CN([C@H](C)CO)C(=O)c2cc(NC(=O)Nc3ccc(C(F)(F)F)cc3)ccc2O1` returned a viability index under setting [1] of 0.947 ± 0.14.

In turn, `CC(=O)N1[C@H](CO)[C@@H](c2ccccc2)[C@@H]1CNC(=O)CN1CCOCC1` had a viability index under setting [1] of 1.02 ± 0.038.

`COc1ccc2c3c([C@H](CO)N(C[C@]33CCN(CC3)C(=O)c3ccccc3)C(=O)c3ccccc3)n(C)c2c1` returned a viability index under setting [1] of 0.979 ± 0.13.

Take `O=C(NCC1CC1)[C@H]1[C@H](CO)[C@H]2Cn3c(ccc(C4=CCCC4)c3=O)[C@H]2N1C(=O)C1CC1`: the viability index under setting [1] came to 1.02 ± 0.08.

Under setting [1], `OC[C@H]1[C@H](c2ccccc2)C2(CN(Cc3ccccc3F)C2)N1Cc1ccccc1F` returned a viability index of 1.02 ± 0.033.

`O=C(C[C@@H]1CC[C@H]2[C@@H](COC[C@@H](O)CN2S(=O)(=O)c2ccc(F)cc2)O1)NCCN1CCCCC1`: under setting [1], the viability index worked out at 1.02 ± 0.062.

In the case of `C/C=C/c1ccc([C@@H]2[C@@H](C#N)N(c3nc(CC)cs3)[C@H]2CO)cc1`, under setting [1], the viability index was 1.1391 ± 5.2e-05.

For `CCC(=O)N1[C@H](CO)[C@@H](c2ccccc2)C12CN(C(=O)CN1CCOCC1)C2`, the viability index under setting [1] came out at 1.04 ± 0.12.

`Cc1ccc(-c2ccc([C@H]3[C@H](CO)N4C(=O)CN(C(=O)NC(C)C)C[C@@H]34)cc2)cc1` came in with a viability index under setting [1] of 1.09 ± 0.061.

As to `C[C@H](CO)N1C[C@H](C)[C@H](CN(C)C(=O)c2ccc3ccn(C)c3c2)OCc2cnnn2CCCC1=O`, the viability index under setting [1] is 0.982 ± 0.052.

The compound `CO[C@@H]1CN(C)C(=O)c2cc(NS(=O)(=O)c3cccc(Cl)c3)ccc2OC[C@H](C)NC[C@H]1C` displayed a viability index under setting [1] of 1.03 ± 0.099.

Under setting [1], `C[C@@H]1CCCCO[C@@H](CN(C)C(=O)c2ccncc2)[C@H](C)CN([C@H](C)CO)C(=O)c2cc(NC(=O)CCC(F)(F)F)ccc2O1` showed a viability index of 1.061 ± 0.0036.

Compound `COCC(=O)N1CC2(C1)[C@H](c1ccccc1)[C@@H](CO)N2C(=O)NC1CCCC1` came in with a viability index under setting [1] of 1 ± 0.25.

The compound `CN1C(=O)c2cc(NC(=O)Cc3cccs3)ccc2OC[C@@H]2O[C@H](CC(=O)N[C@H]3CCN(Cc4ccccc4)C3)CC[C@@H]21` displayed a viability index under setting [1] of 1.06 ± 0.13.

Compound `COc1ccc(C[C@H]2CCc3cnnn3COC[C@H](CC(C)C)NC2=O)cc1` came in with a viability index under setting [1] of 1.04 ± 0.16.

Take `Cc1noc(C)c1NC(=O)N(C)C[C@@H]1OCc2cnnn2CCCC(=O)N([C@@H](C)CO)C[C@H]1C`: under setting [1], the viability index stood at 1.01 ± 0.063.

`O=C(Nc1ccc(C(F)(F)F)cc1)N1C[C@@H]2N[C@H](C1)[C@@H]2c1ccc(-c2cccnc2)cc1` had a viability index (library set: Broad Institute Blood Stage) of 0.981 ± 0.042.

Take `CNC[C@H]1Oc2ccc(NC(=O)NC3CCCCC3)cc2CC(=O)N([C@@H](C)CO)C[C@@H]1C`: the viability index under setting [1] is 1.01 ± 0.051.

Compound `O=C(N[C@H]1C=C[C@H](CC(=O)N2CCC(Cc3ccccc3)CC2)O[C@H]1CO)c1cnccn1` registered a viability index under setting [1] of 0.985 ± 0.056.

`O=C(Nc1ccccc1F)N[C@@H]1CC[C@H](CCNC(=O)C2CC2)O[C@H]1CO` came in with a viability index under setting [1] of 1.1 ± 0.013.

Under setting [1], `O=C(C[C@H]1CC[C@H](NC(=O)c2cccnc2)[C@@H](CO)O1)NCc1ccc(Cl)c(Cl)c1` gave a viability index of 1.07 ± 0.1.

Regarding `C/C=C/c1cnc2c(c1)C(=O)N([C@H](C)CO)C[C@H](C)[C@H](CN(C)C(=O)Nc1cccc(OC)c1)O2`, under setting [1], the viability index amounted to 1.01 ± 0.016.

Compound `C[C@H]1CCCCO[C@H](CN(C)C(=O)CCCN(C)C)[C@@H](C)CN([C@@H](C)CO)C(=O)c2cc(NS(=O)(=O)c3ccc(Cl)cc3)ccc2O1` returned a viability index under setting [1] of 1.02 ± 0.12.

Consider `C[C@@H]1CN([C@@H](C)CO)C(=O)CCCn2nncc2CO[C@H]1CN(C)S(=O)(=O)c1cn(C)cn1`, for which the viability index under setting [1] turned out to be 1.07 ± 0.065.

Under setting [1], `O=C(C1CCOCC1)N1CC2(C1)[C@@H](c1ccccc1)[C@H](CO)N2C(=O)CC1CC1` gave a viability index of 1.09 ± 0.078.

Consider `Cc1cccc(S(=O)(=O)N2C[C@H](O)COC[C@H]3O[C@H](CC(=O)Nc4ccccc4)CC[C@@H]32)c1`, for which the viability index under setting [1] amounted to 1.09 ± 0.042.

Regarding `O=C(C[C@H]1CC[C@@H]2[C@H](COC[C@@H](O)CN2Cc2cc(F)cc(F)c2)O1)Nc1nccs1`, the viability index under setting [1] was 1.04 ± 0.099.

In the case of `C[C@@H]1CN([C@H](C)CO)C(=O)c2cc(NC(=O)Nc3ccc(C(F)(F)F)cc3)ccc2O[C@@H](C)CCCCO[C@H]1CN(C)S(=O)(=O)c1ccc(Cl)cc1`, the viability index under setting [1] stood at 1.13 ± 0.12.

With `N#C[C@@H]1[C@H](c2ccccc2)[C@H](CO)N1C(=O)Nc1cccc(F)c1`, the viability index under setting [1] was found to be 1.0953 ± 0.00064.

As to `C/C=C/c1ccc([C@H]2[C@H]3CNC[C@@H]2N3Cc2ccccc2C(F)(F)F)cc1`, the viability index under setting [1] came out at 1.11 ± 0.0059.

On to `C[C@@H](NC(=O)C[C@H]1CC[C@H]2[C@@H](COC[C@H](O)CN2C(=O)Nc2cccc(Cl)c2)O1)c1ccccc1`, for which the viability index under setting [1] came out at 1.13 ± 0.1.

As to `O=C(C[C@@H]1CC[C@@H](NS(=O)(=O)c2ccc(F)cc2)[C@H](CO)O1)N1CCN(c2ccccc2)CC1`, under setting [1], the viability index was 1.05 ± 0.087.

Compound `O=C(CN1CCOCC1)N1CC2(C1)[C@@H](c1ccccc1)[C@H](CO)N2Cc1cccc(F)c1` gave a viability index under setting [1] of 1.08 ± 0.039.

Compound `CN1CCN(C(=O)C[C@H]2CC[C@@H]3[C@H](COC[C@H](O)CN3C(=O)Nc3ccc4c(c3)OCO4)O2)CC1` had a viability index under setting [1] of 1.08 ± 0.039.

For the compound `CC(C)c1cn(CC[C@H]2CC[C@H](NS(=O)(=O)c3ccc(F)cc3)[C@@H](CO)O2)nn1`, the viability index under setting [1] stood at 1.1 ± 0.12.

Consider `O=C(c1cccc(F)c1)N1C[C@@H]2[C@H](c3ccccc31)[C@H](CO)N2Cc1cocn1`, for which the viability index under setting [1] is 1 ± 0.13.

In turn, `O=C(NCC[C@@H]1CC[C@H](NS(=O)(=O)Cc2ccccc2)[C@@H](CO)O1)C1CCCCC1` registered a viability index under setting [1] of 1.04 ± 0.091.

As to `C[C@@H]1CN([C@@H](C)CO)C(=O)c2cc(NC(=O)Nc3ccccc3)ccc2O[C@@H](C)CCCCO[C@H]1CN(C)C(=O)Nc1ccccc1`, the viability index under setting [1] worked out at 1.11 ± 0.13.

These data come from the supplement of paper PMC4723716.
